Drawing on the RNAGym collection of RNA variant scans (doi:10.1093/nar/gkz1192), this text covers self-cleavage for 34 variants.

The source gives no read counts; variants with many changes may rest on few reads.

First the molecules themselves.
B1: CPEB3 Ribozyme (parent)
chain: UAACAGGGGGCCACAGCAGAAGCGUUCACGUCGCAGCCCCUGUCAGAUUCUGGUGAAUCUGCGAAUUCUGCUGUAUAUCUC

In this series the parent is B1. Briefly: self-cleavage, relative activity (ratio to wild type); higher = more cleavage; in vitro, sequencing. A digest of the protocol: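 Libraries of CPEB3 self-cleaving ribozyme mutants came from rounds of error-prone PCR and carried barcodes, which DNA sequencing matched to variants. In vitro transcription used T7 RNA polymerase at 37°C for 5 hours, with a further 15 min in DNase I before EDTA stopped the reaction; the ribozymes cleaved during both steps. The RNA was reverse transcribed with template switching and sequenced on Illumina. Relative activity is the cleaved/total read fraction of a variant divided by that of the unmutated ribozyme, averaged over three batches with at least 5 reads.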
As to UAUCAGGGGGCCACAGCAGAGGCGAUCACGUCGCAGCCCCUGUCAGAUCCCGGUGAAUCUGCGAAUUCCGCUGUAUAUCUC [A3U A21G U25A U49C U51C U69C], the self-cleavage came to 0.07.
As to UAUCAGGGGGCCACAGCAGAAGCGUUCACGUCGCAGCCCCUGUCUGAAUCUGGUGAAUCUGCGAAUUCUGCUGUAUAUCUC [A3U A45U U48A], the self-cleavage was found to be 0.17.
As for UAUCAGGGGGCCACAGCAGUAGCGUUCACGACGCGGCCCCUGUCAGAUUCUGGUGAAUCUGCGAAUUCUGCUGUAUGUCUC [A3U A20U U31A A35G A77G], the self-cleavage turned out to be 0.52.
Turning to UAUCAGGGGGCCACAGCAGAAGCGUUCGCGUCGCAGCCCCUGUCAGAUUCUGGUGAAUCUGCGAAUUCUGCUGUAUAUCCC [A3U A28G U80C], the self-cleavage was determined as 0.85.
Regarding UAUCAGGGGGCCACAGCAGAAGCGUUCACGUCGCGGCCCCUGUCAGAUUCUGGUGUAUCUGCGAAUUCUGCUGUAUAUCUC [A3U A35G A56U], the self-cleavage is 1.15.
In the case of UAUCAGGGGGCCACAGCAGAAGCGUUCGCGUCGCAGCCCCCGUCAGAUUCUGGUGAAUCCGCGAAUUCUGCUGUAUAUCUC [A3U A28G U41C U60C], the self-cleavage is 0.16.
Take UAUCAGGGGGCCACAGCAGAAGCGUUCUCGUCGCAGCCCCUGUCAGAUUCGGGUGAAUCUGCGAAUUCUGCUGUAUAUCUC [A3U A28U U51G]: the self-cleavage was found to be 1.05.
For the variant UAUCAGGGGGCCACAGCAGAAGCGUUCCCGUCGCAGCCCCAGUCAGGCUCGGGUGAAUCUGCGAAUUCUGCUGUAUAUCUC [A3U A28C U41A A47G U48C U51G], the self-cleavage came to 0.33.
UAUCAGGGGGCCACAGCAGAAGCGUUCACGUCGCAGCCCCUGUCGGAUUCUGGUGAAUCUGCGAAUCCUGCUGUAUAUCUC [A3U A45G U67C]: the self-cleavage came out at 0.49.
With UAUCAGGGGGCCACAGCAGAAGCGUUCGCGUCGCAGCCCCUGUCAGAUUCUGGUGAAUCUGCGAAUUCCGCAGUAUAUCUC [A3U A28G U69C U72A], the self-cleavage came out at 0.14.
Turning to UAUCAGGGGGCCACAGCAGAAGCGUUCACGUCGCAGCCCCUGUCUGCUUCUGGUGAAUCCGCGAAUUCUGCUGUAUAUCUC [A3U A45U A47C U60C], the self-cleavage stood at 0.08.
For UAUCAGGGGGCCACAGCAGAAGCGUUCUCGUCGCAGCCCCAGCCAGACUCUGGUGAAUCCGCGGAUUCUGCUGUAUAUCUC [A3U A28U U41A U43C U48C U60C A64G] the value was 0.15; for UAUCAGGGGGCCACAGCAGAUGCGUUCACGUCGCAGCCCCUGUCAGAUACUGGUGAAUCUGCGAAUUCUGCUGUAUAUCUC [A3U A21U U49A], 0.44.
On to UAUCAGGGGGCCACAGCAGAAGCGUUCACGUCGCUGCCCCUGUCAGAUUCUGGUGAAUCUGCGGAUUCUGCUGUAUAUCUC [A3U A35U A64G], for which the self-cleavage worked out at 0.66.
Turning to UAUCAGGGGGCCACAGCAGAGGCGUUCUCGUCGCAGCCCCUGCCAGAUUCUGGUGAAUCUGCGAAUUCUGCUGUAUAUCUC [A3U A21G A28U U43C], the self-cleavage was 0.19.
In the case of UAUCAGGGGGCCACAGCAGAAGCGUUCACGUCGCGGCCCCUGUCAGAAUCUGGUGAAUCUGCUAAUUCUGCUGUAUAUCUC [A3U A35G U48A G63U] it was 1.14; in that of UAUCAGGGGGCCACAGCAGAAGCGUUCGCGUCGCAGCCCCUGUCAGAUUCUGGUGUAUCUGCGAAUUCUGCAGUAUAUCUC [A3U A28G A56U U72A], 0.22.
As for UAUCAGGGGGCCACAGCAGUAGCGCUCACGUCGCAGCCCCAGUCUGAUUCUGAUGAAUCUGCGAACUCUGCUGUAUAUCUC [A3U A20U U25C U41A A45U G53A U66C], the self-cleavage stood at 0.54.
As to UAUCAGGGGGCCACAGCAGAAGCGUUCACGUCGCGGCCCCUGUCAGAUUCAGGUGAAUCUGCGAAUUCGGCUGUAUAUCUC [A3U A35G U51A U69G], the self-cleavage amounted to 1.13.
For UAUCAGGGGGCCACAGCAGAUGCGUCCACGUCGCAGCCCCUGACAGACUCUGGUGAAUCUGCGAAUUCUGCUGUAUAUCUC [A3U A21U U26C U43A U48C] the value was 0.09; for UAUCAGGGGGCCACAGCAGAAGCGUUCACGUCGCAGCCCCUGUCGGAUCCUGGUAAAACUGCGAAUUCUGCUGUAUAUCUC [A3U A45G U49C G55A U58A], 0.04; for UAUCAGGGGGCCACAGCAGAAGCGUUCGCGUCGCGGCCCCUGUCAGAUUCUGGUGAAACUGCGAAUUCAGCUGUAUAUCUC [A3U A28G A35G U58A U69A], 0.35.
With UAUCAGGGGGCCACAGCAGAAGCGUUCUCGUCGCAGCCCCUGUCAGAUUCUGGUGAAUCUGCGAAUUCUGCCGUAUAUCUC [A3U A28U U72C], the self-cleavage turned out to be 1.15.
With UAUCAGGGGGCCACAGCAGAAGCGUUCUCCUCGCAGCCCCUGUCAGAUUCUGGUGAAUCUGCGAAUUCUGCUGAAUAUCUC [A3U A28U G30C U74A], the self-cleavage was determined as 0.21.
Regarding UAUCAGGGGGCCACAGCAGACGCGUUCACGUCGCAGCCCCUGUCAGAUUCUAGUGAAUCUGCGAAUUCGGCUGUAUAACUC [A3U A21C G52A U69G U78A], the self-cleavage worked out at 0.06.
In the case of UAUCAGGGGGCCACAGCAGAGGCGUUCACGUGGCGGCCCCUGUCAGAUUCUGGUGAAUCUGCGAAUUCUGCUGUAUAUCUC [A3U A21G C32G A35G] it was 0.11.
Regarding UAUCAGGGGGCCACAGCAGAAGCGUUCACGUCGCAGCCCCUGUCGGAUUCCGGUGAGUCAGCGAAUUCUGCUGUAAAUCUC [A3U A45G U51C A57G U60A U76A], the self-cleavage is 0.36.
As for UAUCAGGGGGCCACAGCAGAAGCGUUCACGUCGCGGCCCCUGUCGGAUUCUGGUGAAUCUGCGAAUUCUGCUGUAUAUCUC [A3U A35G A45G], the self-cleavage was found to be 1.2.
For the variant UAUCAGGGGGCCACAGCAGAUGCGUUCACGUCGCAGCCCCUGUCAGAUUCUGGUGUAUCAGCGAAUUCUGCUGUAUAUCUC [A3U A21U A56U U60A], the self-cleavage came out at 0.4.
In the case of UAUCAGGGGGCCACAGCAGAAGCGUUCACGUCGCGGCCCCUGUCAGAUUCUGGUGAAUCUGCGAGUUCUGCUGUAUAUCUC [A3U A35G A65G], the self-cleavage came out at 1.12.
As to UAUCAGGGGGCCACAGCAGAGGCGUUCACGUCGCAGCCCCUGUCAGAUUCUGGUGUAUCUGCGGAUUCUGCUGUAUAUCUC [A3U A21G A56U A64G], the self-cleavage amounted to 0.18.
For UAUCAGGGGGCCACAGCAGAAGCGUUCACGUCGCGGCUCCUGUCAGAUUCUGGUGAAUCUGCGAAUUCCGCUGUGUAUCUC [A3U A35G C38U U69C A75G] the value was 1.
Consider UAUCAGGGGGCCACAGCAGAAGCGUUCUCAUCGCAGCCCCUGUCAGAUUCUGGUGAAUCUGCGAAUUCAGCUGUAUAUCUC [A3U A28U G30A U69A], for which the self-cleavage was found to be 0.11.
With UAUCAGGGGGCCACAGCAGAAGCGUUCACGUCGCUGCCCCUGUCAGAUUCUGGCGAAUCUGCGAAUUCUGCUGUAUAUCUC [A3U A35U U54C], the self-cleavage came out at 0.83.
